Reference: patent US10299477B2 (priority 2015, dated 2019)

Columns and labels:
[1] = test system: Colletotrichum orbiculare; settings: 250 ppm spray (2.5 ml/pot), preventive; 6-10 days after inoculation; control value class
[2] = test system: Magnaporthe grisea; assay type: in vivo; settings: 250 ppm spray, preventive; control value class
[3] = test system: Phytophthora infestans; assay type: in vivo; settings: 250 ppm spray (2.5 ml/pot), preventive; 5-10 days after inoculation; control value class

| Compound | Test H control value (anthracnose on cucumber) [1] | Test A control value (blast on rice) [2] | Test F control value (late blight on tomato) [3] |
| --- | --- | --- | --- |
| O=c1c(Cl)cc(-c2ccc(Cl)cc2Cl)c(-c2c(F)cccc2F)n1CC(F)F [Compound 347] | H (H shows more than 50% of control values) | H (H shows more than 50% of control values) | L (L shows 50% or less of control values) |
| CCn1c(-c2c(F)cccc2F)c(-c2ccc(C)cc2)cc(Cl)c1=O [Compound 272] | H (H shows more than 50% of control values) | H (H shows more than 50% of control values) | L (L shows 50% or less of control values) |
| CCCOc1cc(F)c(-c2c(-c3cc(OC)cc(OC)c3Cl)ccc(=O)n2C)c(F)c1 [Compound 281] | H (H shows more than 50% of control values) | H (H shows more than 50% of control values) | L (L shows 50% or less of control values) |
| Cn1c(-c2c(F)cccc2F)c(-c2cccc(Cl)c2)cc(Cl)c1=O [Compound 189] | L (L shows 50% or less of control values) | H (H shows more than 50% of control values) | L (L shows 50% or less of control values) |
| COc1cc(OC)c(Cl)c(-c2ccc(=O)n(C)c2-c2c(F)cc(OC(C)(C)C)cc2F)c1 [Compound 248] | L (L shows 50% or less of control values) | H (H shows more than 50% of control values) | L (L shows 50% or less of control values) |
| CCCc1cc(-c2cc(OC)ccc2Cl)c(-c2c(F)cccc2F)n(CC)c1=O [Compound 370] | L (L shows 50% or less of control values) | H (H shows more than 50% of control values) | L (L shows 50% or less of control values) |
| CCn1c(-c2c(F)cccc2F)c(-c2ccc(C)cc2)ccc1=O [Compound 269] | H (H shows more than 50% of control values) | H (H shows more than 50% of control values) | L (L shows 50% or less of control values) |
| Cn1c(-c2c(F)cccc2F)c(-c2cc(OC3CCCCC3)ccc2Cl)ccc1=O [Compound 296] | L (L shows 50% or less of control values) | L (L shows 50% or less of control values) | L (L shows 50% or less of control values) |
